# Data taken from the supplement of paper PMC8728848.
# This is one part of the list.
# How the values were obtained:
# Assay in all cases: glycan array binding signal (z-score within array); higher = stronger binding
# Details in all cases: glycan notation: IUPAC condensed, linker removed
# [1] = target: Gal3S(b1-3)[Fuc(a1-4)]GlcNAc
# Procedure, shortened: (§1)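 Glycan array data were curated from 3228 arrays in the Consortium for Functional Glycomics database and kept only where the protein sequence was available. Glycan names were converted to IUPAC-condensed notation, and columns mapping to the same glycan were averaged. The binding signal is a within-array Z-score, averaged across arrays of the same protein sequence at different concentrations or buffers and across linkers. Negative Z-scores can be read as non-binding.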
# [2] = target: Gal3S(b1-4)Glc
# Procedure, shortened: as §1
# [3] = target: Gal3S(b1-4)Glc6S
# Procedure, shortened: as §1
# [4] = target: Gal3S(b1-4)GlcNAc
# Procedure, shortened: as §1
# [5] = target: Gal3S(b1-4)GlcNAc6S
# Procedure, shortened: as §1
# [6] = target: Gal3S(b1-4)[Fuc(a1-3)]Glc
# Procedure, shortened: as §1
# [7] = target: Gal3S(b1-4)[Fuc(a1-3)]Glc6S
# Procedure, shortened: as §1
# [8] = target: Gal3S4S(b1-4)GlcNAc
# Procedure, shortened: as §1
# [9] = target: Gal3S6S(b1-4)GlcNAc
# Procedure, shortened: as §1
# [10] = target: Gal3S6S(b1-4)GlcNAc6S
# Procedure, shortened: as §1
# [11] = target: Gal4S(b1-4)GlcNAc
# Procedure, shortened: as §1
# [12] = target: Gal4S6S(b1-4)GlcNAc
# Procedure, shortened: as §1
# [13] = target: Gal6S(b1-3)GlcNAc
# Procedure, shortened: as §1
# [14] = target: Gal6S(b1-3)GlcNAc6S
# Procedure, shortened: as §1
# [15] = target: Gal6S(b1-4)Glc
# Procedure, shortened: as §1
# [16] = target: Gal6S(b1-4)Glc6S
# Procedure, shortened: as §1
# [17] = target: Gal6S(b1-4)GlcNAc
# Procedure, shortened: as §1
# [18] = target: Gal6S(b1-4)GlcNAc6S
# Procedure, shortened: as §1
# [19] = target: GalNAc(a1-3)Gal
# Procedure, shortened: as §1
# [20] = target: GalNAc(a1-3)GalNAc
# Procedure, shortened: as §1
# [21] = target: GalNAc(a1-3)GalNAc(b1-3)Gal(a1-4)Gal(b1-4)Glc
# Procedure, shortened: as §1
# [22] = target: GalNAc(a1-3)GalNAc(b1-3)Gal(a1-4)Gal(b1-4)GlcNAc
# Procedure, shortened: as §1
# [23] = target: GalNAc(b1-3)Gal
# Procedure, shortened: as §1
# [24] = target: GalNAc(b1-3)Gal(a1-4)Gal(b1-4)GlcNAc
# Procedure, shortened: as §1
# [25] = target: GalNAc(b1-3)Gal(a1-4)Gal(b1-4)GlcNAc(b1-3)Gal(b1-4)Glc
# Procedure, shortened: as §1
# [26] = target: GalNAc(b1-3)Gal(a1-6)Gal(b1-4)Glc
# Procedure, shortened: as §1
# [27] = target: GalNAc(b1-3)GalNAc
# Procedure, shortened: as §1
# [28] = target: GalNAc(b1-4)Gal(b1-4)Glc
# Procedure, shortened: as §1
# [29] = target: GalNAc(b1-4)GlcNAc
# Procedure, shortened: as §1
# [30] = target: GalNAc(b1-4)GlcNAc(b1-2)Man(a1-3)[GalNAc(b1-4)GlcNAc(b1-2)Man(a1-6)]Man(b1-4)GlcNAc(b1-4)GlcNAc
# Procedure, shortened: as §1
# [31] = target: GalNAc(b1-6)GalNAc
# Procedure, shortened: as §1
# [32] = target: Glc(a1-4)Glc
# Procedure, shortened: as §1
# [33] = target: Glc(a1-4)Glc(a1-4)Glc(a1-4)Glc
# Procedure, shortened: as §1
# [34] = target: Glc(a1-6)Glc(a1-6)Glc
# Procedure, shortened: as §1
# [35] = target: Glc(a1-6)Glc(a1-6)Glc(a1-6)Glc
# Procedure, shortened: as §1
# [36] = target: Glc(b1-4)Glc
# Procedure, shortened: as §1
# [37] = target: Glc(b1-6)Glc
# Procedure, shortened: as §1
# [38] = target: GlcA(b1-3)Gal
# Procedure, shortened: as §1
# [39] = target: GlcA(b1-3)GlcNAc
# Procedure, shortened: as §1
# [40] = target: GlcA(b1-6)Gal
# Procedure, shortened: as §1
# [41] = target: GlcNAc(a1-3)Gal(b1-4)GlcNAc
# Procedure, shortened: as §1
# [42] = target: GlcNAc(a1-4)Gal(b1-3)GlcNAc
# Procedure, shortened: as §1
# [43] = target: GlcNAc(a1-4)Gal(b1-4)GalNAc
# Procedure, shortened: as §1
# [44] = target: GlcNAc(a1-4)Gal(b1-4)GlcNAc
# Procedure, shortened: as §1
# [45] = target: GlcNAc(a1-4)Gal(b1-4)GlcNAc(b1-3)Gal(b1-4)Glc
# Procedure, shortened: as §1
binder,measurement,setting,value
"RS2L (Ralstonia solanacearum), B5RXL5_RALSO (protein) MAQQGVFTLPANTSFGVTAFANAANTQTIQVLVDNVVKATFTGSGTSDKLLGSQVLNSGSGAIKIQVSVNGKPSDLVSNQTILANKLNFAMVGSEDGTDNDYNDGIAVLNWPLG",glycan array binding signal (z-score),[1],-0.2
same,glycan array binding signal (z-score),[2],-0.242
same,glycan array binding signal (z-score),[3],-0.168
same,glycan array binding signal (z-score),[4],-0.239
same,glycan array binding signal (z-score),[5],-0.24
same,glycan array binding signal (z-score),[6],-0.234
same,glycan array binding signal (z-score),[7],-0.218
same,glycan array binding signal (z-score),[8],-0.242
same,glycan array binding signal (z-score),[9],-0.249
same,glycan array binding signal (z-score),[10],-0.245
same,glycan array binding signal (z-score),[11],-0.244
same,glycan array binding signal (z-score),[12],-0.245
same,glycan array binding signal (z-score),[13],-0.251
same,glycan array binding signal (z-score),[14],-0.244
same,glycan array binding signal (z-score),[15],-0.244
same,glycan array binding signal (z-score),[16],-0.247
same,glycan array binding signal (z-score),[17],-0.241
same,glycan array binding signal (z-score),[18],-0.234
same,glycan array binding signal (z-score),[19],-0.243
same,glycan array binding signal (z-score),[20],-0.239
same,glycan array binding signal (z-score),[21],-0.249
same,glycan array binding signal (z-score),[22],-0.245
same,glycan array binding signal (z-score),[23],-0.243
same,glycan array binding signal (z-score),[24],-0.245
same,glycan array binding signal (z-score),[25],-0.233
same,glycan array binding signal (z-score),[26],-0.251
same,glycan array binding signal (z-score),[27],-0.245
same,glycan array binding signal (z-score),[28],-0.247
same,glycan array binding signal (z-score),[29],-0.249
same,glycan array binding signal (z-score),[30],-0.246
same,glycan array binding signal (z-score),[31],-0.243
same,glycan array binding signal (z-score),[32],-0.251
same,glycan array binding signal (z-score),[33],-0.244
same,glycan array binding signal (z-score),[34],-0.246
same,glycan array binding signal (z-score),[35],-0.243
same,glycan array binding signal (z-score),[36],-0.251
same,glycan array binding signal (z-score),[37],-0.256
same,glycan array binding signal (z-score),[38],-0.251
same,glycan array binding signal (z-score),[39],-0.242
same,glycan array binding signal (z-score),[40],-0.254
same,glycan array binding signal (z-score),[41],-0.237
same,glycan array binding signal (z-score),[42],-0.249
same,glycan array binding signal (z-score),[43],-0.242
same,glycan array binding signal (z-score),[44],-0.247
same,glycan array binding signal (z-score),[45],-0.241
